Source: publication PMC3411107
These are yes or no findings as the source states them, for the method shown. In cells and extracts the contact can be indirect. Some entries that bind do so weakly or less than the wild type. Tags and fused reporters may be left off the sequences shown. Blank lines part the entries; values can stand above or below the molecule they belong to.

The chains behind the UniProt entries cited, without tags or fusion partners. Where a name states a change or a piece, a line headed by the entry shows the natural chain unless it says otherwise.
UniProt Q15042: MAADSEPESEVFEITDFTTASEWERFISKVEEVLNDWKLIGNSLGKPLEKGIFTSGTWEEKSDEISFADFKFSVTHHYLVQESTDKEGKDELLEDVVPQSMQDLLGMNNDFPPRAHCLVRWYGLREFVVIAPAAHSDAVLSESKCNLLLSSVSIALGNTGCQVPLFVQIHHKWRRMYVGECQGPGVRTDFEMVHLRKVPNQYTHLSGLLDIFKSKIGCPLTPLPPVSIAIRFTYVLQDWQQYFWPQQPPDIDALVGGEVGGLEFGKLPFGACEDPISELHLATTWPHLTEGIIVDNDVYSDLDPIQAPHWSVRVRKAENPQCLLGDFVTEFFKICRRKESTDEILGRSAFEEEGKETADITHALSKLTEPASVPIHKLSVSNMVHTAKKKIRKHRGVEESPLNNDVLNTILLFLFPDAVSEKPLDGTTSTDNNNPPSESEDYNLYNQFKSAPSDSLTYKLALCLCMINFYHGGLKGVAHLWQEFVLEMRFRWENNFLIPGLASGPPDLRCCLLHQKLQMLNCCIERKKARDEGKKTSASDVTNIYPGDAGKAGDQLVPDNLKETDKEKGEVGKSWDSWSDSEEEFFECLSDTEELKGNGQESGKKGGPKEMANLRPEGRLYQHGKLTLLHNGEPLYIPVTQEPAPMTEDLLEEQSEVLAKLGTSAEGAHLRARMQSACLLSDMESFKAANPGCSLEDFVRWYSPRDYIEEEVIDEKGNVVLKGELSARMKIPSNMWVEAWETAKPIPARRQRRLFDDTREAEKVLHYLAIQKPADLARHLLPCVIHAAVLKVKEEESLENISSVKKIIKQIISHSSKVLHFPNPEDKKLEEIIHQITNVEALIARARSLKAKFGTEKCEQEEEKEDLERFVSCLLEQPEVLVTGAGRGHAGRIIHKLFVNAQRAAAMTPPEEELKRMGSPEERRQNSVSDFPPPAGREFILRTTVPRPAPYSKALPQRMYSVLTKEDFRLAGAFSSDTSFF
UniProt Q9H2M9: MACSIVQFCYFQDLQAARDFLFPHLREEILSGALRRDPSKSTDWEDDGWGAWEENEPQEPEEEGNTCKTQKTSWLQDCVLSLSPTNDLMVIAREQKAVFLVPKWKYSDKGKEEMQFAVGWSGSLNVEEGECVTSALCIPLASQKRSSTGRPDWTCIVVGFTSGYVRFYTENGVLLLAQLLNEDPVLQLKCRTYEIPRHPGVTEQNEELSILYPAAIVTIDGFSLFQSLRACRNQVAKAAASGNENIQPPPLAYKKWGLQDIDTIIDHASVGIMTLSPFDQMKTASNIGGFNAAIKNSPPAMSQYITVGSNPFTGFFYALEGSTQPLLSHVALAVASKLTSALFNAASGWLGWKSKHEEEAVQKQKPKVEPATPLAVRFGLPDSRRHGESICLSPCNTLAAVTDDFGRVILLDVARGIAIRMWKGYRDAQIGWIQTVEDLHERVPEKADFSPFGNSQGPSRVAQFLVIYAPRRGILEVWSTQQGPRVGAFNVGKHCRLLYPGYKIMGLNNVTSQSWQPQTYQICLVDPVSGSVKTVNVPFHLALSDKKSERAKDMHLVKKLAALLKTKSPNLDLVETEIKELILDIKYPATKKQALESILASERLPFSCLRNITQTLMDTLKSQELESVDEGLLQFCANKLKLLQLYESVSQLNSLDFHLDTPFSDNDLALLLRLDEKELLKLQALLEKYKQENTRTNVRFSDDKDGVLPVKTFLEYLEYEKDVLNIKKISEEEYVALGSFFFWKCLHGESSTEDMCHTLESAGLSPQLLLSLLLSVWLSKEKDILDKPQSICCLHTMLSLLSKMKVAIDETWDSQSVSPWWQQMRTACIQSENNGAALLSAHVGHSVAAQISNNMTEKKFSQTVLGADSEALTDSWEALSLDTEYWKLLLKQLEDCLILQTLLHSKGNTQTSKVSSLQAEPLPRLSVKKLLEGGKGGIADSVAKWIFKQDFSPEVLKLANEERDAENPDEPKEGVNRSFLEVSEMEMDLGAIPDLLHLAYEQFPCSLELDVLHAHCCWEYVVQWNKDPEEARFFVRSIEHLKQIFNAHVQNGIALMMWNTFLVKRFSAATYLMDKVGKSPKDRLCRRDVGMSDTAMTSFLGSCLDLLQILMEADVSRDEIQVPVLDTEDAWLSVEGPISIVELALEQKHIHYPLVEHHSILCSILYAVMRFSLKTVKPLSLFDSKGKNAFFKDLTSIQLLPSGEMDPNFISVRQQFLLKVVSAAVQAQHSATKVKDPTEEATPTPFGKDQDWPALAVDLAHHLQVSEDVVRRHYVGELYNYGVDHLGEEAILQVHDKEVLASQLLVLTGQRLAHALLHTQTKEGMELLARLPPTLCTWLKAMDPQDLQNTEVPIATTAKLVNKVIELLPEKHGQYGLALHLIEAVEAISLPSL

Tests used:
[1] = target: T1, REEP4-GFP with Asp in the place of Ser152 (human) (UniProt Q9H6H4); experiment: co-IP; REEP-GFP proteins isolated from lysates (2.5 mg) of transfected HEK293 cells with GFP-Trap agarose (anti-GFP IP); co-purified endogenous RAB3GAP1, RAB3GAP2 and 14-3-3 detected by immunoblotting
T1 sequence: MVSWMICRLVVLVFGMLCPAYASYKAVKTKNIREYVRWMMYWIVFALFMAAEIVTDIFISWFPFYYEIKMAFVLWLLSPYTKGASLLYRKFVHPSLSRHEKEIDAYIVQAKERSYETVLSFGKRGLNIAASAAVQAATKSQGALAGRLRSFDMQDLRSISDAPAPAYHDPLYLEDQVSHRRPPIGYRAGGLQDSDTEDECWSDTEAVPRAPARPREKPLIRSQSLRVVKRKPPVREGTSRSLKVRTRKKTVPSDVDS

[2] = target: T2, REEP4-GFP (wild-type) (human) (UniProt Q9H6H4); experiment: as above
T2 sequence (chain, phosphoserine at 152; phosphoserine at 224 in phorbol ester-stimulated cells): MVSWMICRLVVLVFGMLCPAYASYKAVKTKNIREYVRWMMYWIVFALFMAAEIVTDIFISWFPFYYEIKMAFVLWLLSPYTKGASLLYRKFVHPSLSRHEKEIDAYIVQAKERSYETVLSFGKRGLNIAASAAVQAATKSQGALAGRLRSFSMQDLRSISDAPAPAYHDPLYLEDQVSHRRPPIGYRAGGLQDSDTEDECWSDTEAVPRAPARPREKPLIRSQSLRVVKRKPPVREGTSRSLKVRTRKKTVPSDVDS

REEP4-S152A-GFP (human) = target: T3, REEP4-S152A-GFP (human) (UniProt Q9H6H4); experiment: as above
T3 sequence: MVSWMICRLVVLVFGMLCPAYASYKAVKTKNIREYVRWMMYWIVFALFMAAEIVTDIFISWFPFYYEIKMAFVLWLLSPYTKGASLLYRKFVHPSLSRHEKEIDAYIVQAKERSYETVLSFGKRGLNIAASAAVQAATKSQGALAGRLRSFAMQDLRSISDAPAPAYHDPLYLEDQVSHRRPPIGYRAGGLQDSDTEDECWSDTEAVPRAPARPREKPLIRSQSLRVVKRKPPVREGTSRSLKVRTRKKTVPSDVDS

[3] = target: T4, REEP4-GFP with Glu in the place of Ser152 (human) (UniProt Q9H6H4); experiment: as above
T4 sequence: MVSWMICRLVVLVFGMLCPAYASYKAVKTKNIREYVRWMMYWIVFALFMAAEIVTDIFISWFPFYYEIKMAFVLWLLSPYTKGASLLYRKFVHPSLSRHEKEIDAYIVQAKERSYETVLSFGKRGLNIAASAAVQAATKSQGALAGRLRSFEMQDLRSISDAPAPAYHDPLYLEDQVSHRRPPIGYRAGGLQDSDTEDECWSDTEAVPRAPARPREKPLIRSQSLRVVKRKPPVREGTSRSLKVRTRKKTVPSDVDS

[4] = target: T5, Ser224Ala-substituted REEP4 (REEP4-GFP) (human) (UniProt Q9H6H4); experiment: as above
T5 sequence: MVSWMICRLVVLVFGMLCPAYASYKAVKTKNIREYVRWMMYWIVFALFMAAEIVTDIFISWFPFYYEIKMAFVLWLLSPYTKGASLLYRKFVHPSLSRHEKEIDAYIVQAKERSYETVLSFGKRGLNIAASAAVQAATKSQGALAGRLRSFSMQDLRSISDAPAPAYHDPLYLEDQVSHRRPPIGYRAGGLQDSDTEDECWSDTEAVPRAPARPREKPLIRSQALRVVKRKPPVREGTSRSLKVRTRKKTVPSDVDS

[5] = target: RAB3GAP1–RAB3GAP2 heterodimer (human (endogenous in HEK293)) (UniProt Q15042+Q9H2M9); experiment: co-IP; endogenous RAB3GAP1 immunoprecipitated from HEK293 cells transfected to express wild-type or mutant REEP4-GFP; immunoprecipitates blotted; control with pre-immune antibodies

binding [1]: binds | binding [2]: binds | binding (REEP4-S152A-GFP (human)): no binding | binding [3]: binds | binding [4]: binds
Molecule: RAB3GAP1–RAB3GAP2 heterodimer (from UniProt Q15042 1-981; Q9H2M9 1-1393) (complex)

binding [5]: binds
B1: REEP4-GFP (wild-type) (protein, UniProt Q9H6H4 1-257)
chain: MVSWMICRLVVLVFGMLCPAYASYKAVKTKNIREYVRWMMYWIVFALFMAAEIVTDIFISWFPFYYEIKMAFVLWLLSPYTKGASLLYRKFVHPSLSRHEKEIDAYIVQAKERSYETVLSFGKRGLNIAASAAVQAATKSQGALAGRLRSFSMQDLRSISDAPAPAYHDPLYLEDQVSHRRPPIGYRAGGLQDSDTEDECWSDTEAVPRAPARPREKPLIRSQSLRVVKRKPPVREGTSRSLKVRTRKKTVPSDVDS
modifications: phosphoserine at 152; phosphoserine at 224 in phorbol ester-stimulated cells

binding [5]: no binding
B2: REEP4-S152A-GFP (protein, UniProt Q9H6H4 1-257)
chain: MVSWMICRLVVLVFGMLCPAYASYKAVKTKNIREYVRWMMYWIVFALFMAAEIVTDIFISWFPFYYEIKMAFVLWLLSPYTKGASLLYRKFVHPSLSRHEKEIDAYIVQAKERSYETVLSFGKRGLNIAASAAVQAATKSQGALAGRLRSFAMQDLRSISDAPAPAYHDPLYLEDQVSHRRPPIGYRAGGLQDSDTEDECWSDTEAVPRAPARPREKPLIRSQSLRVVKRKPPVREGTSRSLKVRTRKKTVPSDVDS

binding [5]: binds
B3: Ser224Ala-substituted REEP4 (REEP4-GFP) (protein, UniProt Q9H6H4 1-257)
chain: MVSWMICRLVVLVFGMLCPAYASYKAVKTKNIREYVRWMMYWIVFALFMAAEIVTDIFISWFPFYYEIKMAFVLWLLSPYTKGASLLYRKFVHPSLSRHEKEIDAYIVQAKERSYETVLSFGKRGLNIAASAAVQAATKSQGALAGRLRSFSMQDLRSISDAPAPAYHDPLYLEDQVSHRRPPIGYRAGGLQDSDTEDECWSDTEAVPRAPARPREKPLIRSQALRVVKRKPPVREGTSRSLKVRTRKKTVPSDVDS
